The other results are listed elsewhere or left out.
Biological target: T1, OsWOX13 (Oryza sativa, UniProt Q5QMM3 1-267)
T1 sequence: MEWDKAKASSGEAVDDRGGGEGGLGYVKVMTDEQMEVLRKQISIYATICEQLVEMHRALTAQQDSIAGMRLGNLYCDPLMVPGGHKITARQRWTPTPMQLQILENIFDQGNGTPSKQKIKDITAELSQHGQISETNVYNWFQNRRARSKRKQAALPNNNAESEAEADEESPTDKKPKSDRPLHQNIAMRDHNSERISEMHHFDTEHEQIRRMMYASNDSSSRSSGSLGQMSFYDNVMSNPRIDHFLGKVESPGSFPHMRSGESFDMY
Test: protein-binding microarray (RPBM); PBS, 2% BSA, 51.3 ng/ul salmon testes DNA, 50 uM zinc acetate, 200 nM TF, 25 C, 1 h; high values mean tight binding
Conditions: protein: recombinant; tags: N-terminal polyhistidine and DsRed monomer fusion (pET32a); label: CyDye5-dUTP incorporated in the synthesized complementary strand; 3' TTTTT single-stranded linker to array surface; dsDNA, one strand shown
How it was run: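 Polyhistidine-tagged DsRed fusions of transcription factors, joined at the N-terminus, were expressed in E. coli BL21-CodonPlus and isolated on Ni–NTA. They were incubated at 200 nM for 1 h at 25 °C on a custom Agilent array, double-stranded and BSA-blocked, in PBS with 2% BSA, salmon testes DNA and 50 µM zinc acetate. The binding signal is per-feature fluorescence intensity (arbitrary units) read on an Axon 4000B scanner after washing.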

Row | Sequence | binding signal
1 | AGAAACTAATTGCATAGTTTGCATGTAAATTGAGAGACGGCGGAGTCACCTAGTGCAG | 25700 fluorescence intensity (a.u.)
2 | CTATTGATCAAACAGACAAGTATGGATGCTCACATGAGCACGGAGTCACCTAGTGCAG | 5180 fluorescence intensity (a.u.)
3 | CAAATTGGAATAACCAGCAGCGAGACAATGGAGGCAGGCACGGAGTCACCTAGTGCAG | 6250 fluorescence intensity (a.u.)
4 | CGTAATCTAGATTTGGTTTGAGGCCCTACCAAAATATTGGCGGAGTCACCTAGTGCAG | 3700 fluorescence intensity (a.u.)
5 | CTTACATGATTATCAACTTATAGTTGATTTGGGATAACCACGGAGTCACCTAGTGCAG | 34300 fluorescence intensity (a.u.)
6 | AATATCAAAATTTAATTTGAAGAATGAGATAGCCACTCTGCGGAGTCACCTAGTGCAG | 4560 fluorescence intensity (a.u.)
7 | CAATACTAAATAGATAATTGCTAGCTAATCTTCCTTGAGTCGGAGTCACCTAGTGCAG | 19900 fluorescence intensity (a.u.)
8 | ACCCTCAAATTATTTCCATAAACTCAGTTCTATCCATCACCGGAGTCACCTAGTGCAG | 7940 fluorescence intensity (a.u.)
9 | CCAGACAGGGTTATCAATCTTGTTCTTCAATACCTAACCACGGAGTCACCTAGTGCAG | 5630 fluorescence intensity (a.u.)
10 | ATGTTAATTGTAGAGCATGGCATGGATCTAAATTTGAGAGCGGAGTCACCTAGTGCAG | 19000 fluorescence intensity (a.u.)
11 | TCCTGATCAAATTTCAGGAAACATTCAGTGAGAAGGCGATCGGAGTCACCTAGTGCAG | 4280 fluorescence intensity (a.u.)
12 | TAAAATCAATTAGCTGATGAGGGAATATAAGCCTACGGGCCGGAGTCACCTAGTGCAG | 24600 fluorescence intensity (a.u.)
13 | TATACTAAATTGGAGCACGCTGATCACGTTCTGCATCAACCGGAGTCACCTAGTGCAG | 9410 fluorescence intensity (a.u.)
14 | GTACTAGATTGGAGCTTAATTTCATAAAGTCTGGTAGAGTCGGAGTCACCTAGTGCAG | 44200 fluorescence intensity (a.u.)
15 | TCCAAATTTATTTACAGCAGAGTGTACAAATCATCTAGAGCGGAGTCACCTAGTGCAG | 12100 fluorescence intensity (a.u.)
16 | ACTTTAATTTTGGTCAGCTCCCGTACATGTAGTTAACTTGCGGAGTCACCTAGTGCAG | 7810 fluorescence intensity (a.u.)
17 | AACCTAAAATTAAATTTTAAATTTTGATTCATAAGCATAACGGAGTCACCTAGTGCAG | 11600 fluorescence intensity (a.u.)
18 | ATAGATTACTTGTTTGGTGATTAAACGTTGCAACACACAGCGGAGTCACCTAGTGCAG | 22400 fluorescence intensity (a.u.)
19 | GCATCTAATTTAAACTTTCAAATCTTTCAACTCGAAAATTCGGAGTCACCTAGTGCAG | 4920 fluorescence intensity (a.u.)
20 | TTCTGTAATTGATGCTCCTGCATTTTAGTGTATAAGTGTACGGAGTCACCTAGTGCAG | 36500 fluorescence intensity (a.u.)
21 | AGTTTAACTAAATTTGTAGAATAACATGATCAACATCTATCGGAGTCACCTAGTGCAG | 9980 fluorescence intensity (a.u.)
22 | CATAGTCACATGATGGAGATTGGAGAGTCTACTTAAGTAGCGGAGTCACCTAGTGCAG | 6700 fluorescence intensity (a.u.)
23 | AAAATTTGACAATGACAAATTTTAGAAGGGTTGAAAGTGCCGGAGTCACCTAGTGCAG | 17900 fluorescence intensity (a.u.)
